From the antibiotic and cytotoxicity screens of Wong et al. (2023)
The other results are listed elsewhere or left out.

tested on: S. aureus RN4220; assay: growth inhibition call (relative growth <= 0.2); conditions: 50 µM

Growth inhibition call, active:
COC1C(O)CC(=O)OC(C)CC=CC=CC(O)C(C)CC(CC=O)C1OC1OC(C)C(OC2CC(C)(O)C(OC(=O)CC(C)C)C(C)O2)C(N(C)C)C1O (stereo not drawn) [KITASAMYCINS [A1 shown]]
CCCCCC=CCCC(=O)NC1C(Oc2c3cc4cc2Oc2ccc(cc2Cl)C(OC2OC(CO)C(O)C(O)C2NC(C)=O)C2NC(=O)C(NC(=O)C4NC(=O)C4NC(=O)C(Cc5ccc(c(Cl)c5)O3)NC(=O)C(N)c3ccc(O)c(c3)Oc3cc(O)cc4c3)c3ccc(O)c(c3)-c3c(OC4OC(CO)C(O)C(O)C4O)cc(O)cc3C(C(=O)O)NC2=O)OC(CO)C(O)C1O (stereo not drawn) [TEICOPLANIN [A(2-1) shown]]

Growth inhibition call, inactive:
CC(C=CC1(O)C(C)=CC(=O)CC1(C)C)=CC(=O)O (mixture of isomers) [ABSCISIC ACID (cis,trans; +/-)]
COc1ccc(NC(=O)Nc2ccc3c(c2)C(=O)N([C@H](C)CO)C[C@@H](C)[C@@H](CN(C)CC2CCCCC2)O3)cc1
CC(C)(CO)C(O)C(=O)NCCC(=O)[O-].[Na+] (stereo not drawn) [PANTOTHENIC ACID(d) Na salt]
CC(C)(N)c1ccc(F)cc1
C[C@H]1CN([C@@H](C)CO)S(=O)(=O)c2ccc(-c3ccc(C(=O)N(C)C)cc3)cc2O[C@@H]1CN(C)C(=O)Cc1ccccn1
CO[C@@H]1CN(C)C(=O)c2cc(NC(=O)Nc3ccccc3)ccc2OC[C@H](C)N(C(=O)CN(C)C)C[C@@H]1C
C[C@@H]1CN([C@@H](C)CO)C(=O)Cc2cc(NS(=O)(=O)c3cn(C)cn3)ccc2O[C@@H]1CN(C)S(=O)(=O)c1cccs1
Cc1noc(C)c1S(=O)(=O)N(C)C[C@H]1Oc2ccc(NC(=O)NC(C)C)cc2CC(=O)N([C@@H](C)CO)C[C@H]1C
CC(C)CCC[C@@H](C)[C@H]1CC[C@H]2[C@@H]3C[C@@H](O)[C@@]4(O)C[C@@H](O)CC[C@]4(C)[C@H]3CC[C@]12C [CHOLESTAN-3beta,5alpha,6beta-TRIOL]
COC1C(C(=O)O)OC(C)C(O)C1O.COC1OC(C(=O)O)C(O)C(O)C1O (stereo not drawn) [ALGINIC ACID [Mol Wt ~200,000; monomers shown]]
CC(C)CCCC(C)C1CCC2C3CC(=O)C4CC(O)CCC4(C)C3CCC12C (stereo not drawn) [5alpha-CHOLESTAN-3beta-OL-6-ONE]
COc1ccc(NC(=O)Nc2ccc3c(c2)C(=O)N([C@H](C)CO)C[C@H](C)[C@H](CN(C)C(=O)Nc2cccc4ccccc24)OCCCC[C@H](C)O3)cc1
N=C(CN1CCCCC1)NO
C[C@@H]1CCCCO[C@H](CN(C)S(=O)(=O)c2ccccc2)[C@H](C)CN([C@@H](C)CO)C(=O)c2cc(NC(=O)Nc3ccc4c(c3)OCO4)ccc2O1
CC(=O)OC1CCC2(C)C(CCC3(C)C2CC=C2C4CC(C)(C)CCC4(C)CCC23C)C1(C)C (stereo not drawn) [beta-AMYRIN ACETATE]
CC(C=CC=C(C)C=CC1=C(C)C(=O)CCC1(C)C)=CC=CC=C(C)C=CC=C(C)C=CC1=C(C)C(=O)CCC1(C)C [CANTHAXANTHIN (euglenanone)]
CS(=O)(=O)Nc1ccc2c(c1)[C@H]1C[C@@H](CC(=O)NCc3ccc(-c4ccccc4)cc3)O[C@@H](CO)[C@H]1O2
CC(=O)C12OC1(C)CC1C3CC=C4CC(O)CCC4(C)C3CCC12C (stereo not drawn) [16beta-METHYL-16(17)-EPOXY-5-PREGNENOLONE]
O=C(/C=C/c1ccccc1)c1ccc(O[C@@H]2O[C@H](CO)[C@@H](O)[C@H](O)[C@H]2O)cc1O
CC1=CCCC(C)=CCC(C)(C)C=CC1 [HUMULENE (alpha)]
C[C@@H]1CN([C@@H](C)CO)C(=O)c2cccc(NC(=O)CCCCCC(=O)Nc3ccccc3N)c2O[C@H]1CN(C)Cc1ccc(Oc2ccccc2)cc1
Cc1noc(C)c1S(=O)(=O)Nc1ccc2c(c1)CC(=O)N([C@H](C)CO)C[C@H](C)[C@@H](CN(C)Cc1ccncc1)O2
C[C@@H]1CN([C@@H](C)CO)C(=O)Cc2cc(NC(=O)Cc3ccccc3)ccc2O[C@H]1CN(C)Cc1ccc(-c2ccccc2)cc1
C[C@H](CO)N1C[C@H](C)[C@@H](CN(C)C(=O)Nc2ccc3c(c2)OCO3)Oc2ccc(NC(=O)Nc3ccc(C(F)(F)F)cc3)cc2C1=O
C[C@H](CO)N1C[C@H](C)[C@H](CN(C)C(=O)Nc2ccc3c(c2)OCO3)Oc2ncc(C#CCN(C)C)cc2C1=O
CC(C)CCCC(C)C1CCC2C3CCC4CC(O)CCC4(C)C3CCC12C (stereo not drawn) [5alpha-CHOLESTANOL]
